# Measurements as given in the supplement of paper PMC8728848.
# The list shows a part of the results.
# B1: HMGB1 (Homo sapiens), P09429 (protein)
# chain: MGKGDPKKPRGKMSSYAFFVQTCREEHKKKHPDASVNFSEFSKKCSERWKTMSAKEKGKFEDMAKADKARYEREMKTYIPPKGETKKKFKDPNAPKRPPSAFFLFCSEYRPKIKGEHPGLSIGDVAKKLGEMWNNTAADDKQPYEKKAAKLKEKYEKDIAAYRAKGKPDAAKKGVVKAEKSKKKKEEEEDEEDEEDEEEEEDEEDEDEEEDDDDE
# What was measured:
# Experiment in all cases: glycan array binding signal (z-score within array); higher = stronger binding
# Conditions in all cases: glycan notation: IUPAC condensed, linker removed
# Gal6S(b1-4)Glc = target: Gal6S(b1-4)Glc
# Summary of the method: (§1)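 Glycan array binding is given as a within-array Z-score, which can be read as non-binding when negative. The arrays, 3228 of them, came from the Consortium for Functional Glycomics database and were retained only where the protein sequence was available. Z-scores were averaged across arrays of the same protein sequence at different concentrations or buffers and across linkers.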
# Gal6S(b1-4)Glc6S = target: Gal6S(b1-4)Glc6S
# Summary of the method: as §1
# Gal6S(b1-4)GlcNAc = target: Gal6S(b1-4)GlcNAc
# Summary of the method: as §1
# GalNAc(a1-3)Gal = target: GalNAc(a1-3)Gal
# Summary of the method: as §1
# GalNAc(a1-3)GalNAc = target: GalNAc(a1-3)GalNAc
# Summary of the method: as §1
# [1] = target: GalNAc(b1-3)Gal(a1-4)Gal(b1-4)GlcNAc
# Summary of the method: as §1
# GalNAc(b1-4)GlcNAc = target: GalNAc(b1-4)GlcNAc
# Summary of the method: as §1
# Glc(a1-4)Glc = target: Glc(a1-4)Glc
# Summary of the method: as §1
# Glc(a1-6)Glc(a1-6)Glc = target: Glc(a1-6)Glc(a1-6)Glc
# Summary of the method: as §1
# Glc(b1-4)Glc = target: Glc(b1-4)Glc
# Summary of the method: as §1
# Glc(b1-6)Glc = target: Glc(b1-6)Glc
# Summary of the method: as §1
# GlcA(b1-3)Gal = target: GlcA(b1-3)Gal
# Summary of the method: as §1
# GlcA(b1-6)Gal = target: GlcA(b1-6)Gal
# Summary of the method: as §1
# [2] = target: GlcNAc(a1-3)Gal(b1-4)GlcNAc
# Summary of the method: as §1
# [3] = target: GlcNAc(a1-6)Gal(b1-4)GlcNAc
# Summary of the method: as §1
# [4] = target: GlcNAc(b1-2)Gal(b1-3)GlcNAc
# Summary of the method: as §1
# [5] = target: GlcNAc(b1-2)Man(a1-3)[GlcNAc(b1-2)Man(a1-6)]Man(b1-4)GlcNAc(b1-4)GlcNAc
# Summary of the method: as §1
# GlcNAc(b1-3)Gal = target: GlcNAc(b1-3)Gal
# Summary of the method: as §1
# [6] = target: GlcNAc(b1-3)Gal(b1-3)GalNAc
# Summary of the method: as §1
# GlcNAc(b1-3)Gal(b1-4)Glc = target: GlcNAc(b1-3)Gal(b1-4)Glc
# Summary of the method: as §1
# [7] = target: GlcNAc(b1-3)Gal(b1-4)GlcNAc
# Summary of the method: as §1
# [8] = target: GlcNAc(b1-3)Gal(b1-4)GlcNAc(b1-3)Gal(b1-4)GlcNAc
# Summary of the method: as §1
# GlcNAc(b1-3)GalNAc = target: GlcNAc(b1-3)GalNAc
# Summary of the method: as §1
# [9] = target: GlcNAc(b1-3)[GlcNAc(b1-4)][GlcNAc(b1-6)]GlcNAc
# Summary of the method: as §1
# [10] = target: GlcNAc(b1-3)[GlcNAc(b1-6)]Gal(b1-4)GlcNAc
# Summary of the method: as §1
# [11] = target: GlcNAc(b1-3)[GlcNAc(b1-6)]GlcNAc
# Summary of the method: as §1
# [12] = target: GlcNAc(b1-4)Gal(b1-4)GlcNAc
# Summary of the method: as §1
# [13] = target: GlcNAc(b1-4)GlcNAc(b1-4)GlcNAc
# Summary of the method: as §1
# [14] = target: GlcNAc(b1-4)GlcNAc(b1-4)GlcNAc(b1-4)GlcNAc(b1-4)GlcNAc
# Summary of the method: as §1
# [15] = target: GlcNAc(b1-4)GlcNAc(b1-4)GlcNAc(b1-4)GlcNAc(b1-4)GlcNAc(b1-4)GlcNAc
# Summary of the method: as §1
# [16] = target: GlcNAc(b1-4)[GlcNAc(b1-6)]GalNAc
# Summary of the method: as §1
# [17] = target: GlcNAc(b1-6)Gal(b1-4)GlcNAc
# Summary of the method: as §1
# GlcNAc(b1-6)GalNAc = target: GlcNAc(b1-6)GalNAc
# Summary of the method: as §1
# Kdn(a2-3)Gal(b1-3)GlcNAc = target: Kdn(a2-3)Gal(b1-3)GlcNAc
# Summary of the method: as §1
# Kdn(a2-3)Gal(b1-4)GlcNAc = target: Kdn(a2-3)Gal(b1-4)GlcNAc
# Summary of the method: as §1
# [18] = target: Man(a1-2)Man(a1-2)Man(a1-3)Man
# Summary of the method: as §1
# [19] = target: Man(a1-2)Man(a1-2)Man(a1-3)[Man(a1-2)Man(a1-3)[Man(a1-2)Man(a1-6)]Man(a1-6)]Man(b1-4)GlcNAc(b1-4)GlcNAc
# Summary of the method: as §1
# [20] = target: Man(a1-2)Man(a1-2)Man(a1-3)[Man(a1-2)Man(a1-6)[Man(a1-3)]Man(a1-6)]Man(b1-4)GlcNAc(b1-4)GlcNAc
# Summary of the method: as §1
# [21] = target: Man(a1-2)Man(a1-2)Man(a1-6)[Man(a1-3)]Man
# Summary of the method: as §1
# Man(a1-2)Man(a1-3)Man = target: Man(a1-2)Man(a1-3)Man
# Summary of the method: as §1
# [22] = target: Man(a1-2)Man(a1-3)[Man(a1-2)Man(a1-6)]Man
# Summary of the method: as §1
# [23] = target: Man(a1-2)Man(a1-3)[Man(a1-3)[Man(a1-6)]Man(a1-6)]Man(b1-4)GlcNAc(b1-4)GlcNAc
# Summary of the method: as §1
# [24] = target: Man(a1-2)Man(a1-3)[Man(a1-6)]Man(a1-6)[Man(a1-2)Man(a1-3)]Man(b1-4)GlcNAc(b1-4)GlcNAc
# Summary of the method: as §1
# Man(a1-3)[Man(a1-6)]Man = target: Man(a1-3)[Man(a1-6)]Man
# Summary of the method: as §1
# [25] = target: Man(a1-3)[Man(a1-6)]Man(a1-6)[Man(a1-3)]Man(b1-4)GlcNAc(b1-4)GlcNAc
# Summary of the method: as §1
binder,measurement,setting,value
B1,glycan array binding signal (z-score),Gal6S(b1-4)Glc,-0.252
same,glycan array binding signal (z-score),Gal6S(b1-4)Glc6S,1.42
same,glycan array binding signal (z-score),Gal6S(b1-4)GlcNAc,0.184
same,glycan array binding signal (z-score),GalNAc(a1-3)Gal,-0.403
same,glycan array binding signal (z-score),GalNAc(a1-3)GalNAc,-0.292
same,glycan array binding signal (z-score),[1],-0.482
same,glycan array binding signal (z-score),GalNAc(b1-4)GlcNAc,-0.432
same,glycan array binding signal (z-score),Glc(a1-4)Glc,-0.36
same,glycan array binding signal (z-score),Glc(a1-6)Glc(a1-6)Glc,-0.364
same,glycan array binding signal (z-score),Glc(b1-4)Glc,-0.365
same,glycan array binding signal (z-score),Glc(b1-6)Glc,-0.253
same,glycan array binding signal (z-score),GlcA(b1-3)Gal,-0.1
same,glycan array binding signal (z-score),GlcA(b1-6)Gal,0.008
same,glycan array binding signal (z-score),[2],-0.438
same,glycan array binding signal (z-score),[3],-0.299
same,glycan array binding signal (z-score),[4],-0.455
same,glycan array binding signal (z-score),[5],0.079
same,glycan array binding signal (z-score),GlcNAc(b1-3)Gal,0.11
same,glycan array binding signal (z-score),[6],-0.478
same,glycan array binding signal (z-score),GlcNAc(b1-3)Gal(b1-4)Glc,-0.22
same,glycan array binding signal (z-score),[7],0.445
same,glycan array binding signal (z-score),[8],-0.417
same,glycan array binding signal (z-score),GlcNAc(b1-3)GalNAc,0.247
same,glycan array binding signal (z-score),[9],-0.309
same,glycan array binding signal (z-score),[10],-0.443
same,glycan array binding signal (z-score),[11],-0.358
same,glycan array binding signal (z-score),[12],0.617
same,glycan array binding signal (z-score),[13],-0.322
same,glycan array binding signal (z-score),[14],0.146
same,glycan array binding signal (z-score),[15],-0.286
same,glycan array binding signal (z-score),[16],-0.433
same,glycan array binding signal (z-score),[17],-0.489
same,glycan array binding signal (z-score),GlcNAc(b1-6)GalNAc,-0.36
same,glycan array binding signal (z-score),Kdn(a2-3)Gal(b1-3)GlcNAc,-0.363
same,glycan array binding signal (z-score),Kdn(a2-3)Gal(b1-4)GlcNAc,1.47
same,glycan array binding signal (z-score),[18],-0.413
same,glycan array binding signal (z-score),[19],-0.292
same,glycan array binding signal (z-score),[20],-0.385
same,glycan array binding signal (z-score),[21],1.21
same,glycan array binding signal (z-score),Man(a1-2)Man(a1-3)Man,-0.124
same,glycan array binding signal (z-score),[22],0.14
same,glycan array binding signal (z-score),[23],-0.414
same,glycan array binding signal (z-score),[24],-0.316
same,glycan array binding signal (z-score),Man(a1-3)[Man(a1-6)]Man,-0.418
same,glycan array binding signal (z-score),[25],-0.404
